{"source": "the supplement of paper PMC8728848", "binders": {"B1": {"name": "SGC, Q9M345 (protein)", "chain": "QNLNFTYNGFHPPLTDISLQGLATVTPNGLLKLTNTSVQKTGHAFCTERIRFKDSQNGNVSSFSTTFVFAIHSQIPTLSGHGIAFVVAPTLGLPFALPSQYIGLFNISNNGNDTNHIFAVEFDTIQSSEFGDPNDNHVGIDLNGLRSANYSTAGYRDDHDKFQNLSLISRKRIQVWIDYDNRSHRIDVTVAPFDSDKPRKPLVSYVRDLSSILLEDMYVGFSSATGSVLSEHFLVGWSFRLNGEAPMLSLSKLPKLPRFEPRRIS"}}, "experiment_in_all_cases": "glycan array binding signal (z-score within array); higher = stronger binding", "conditions_in_all_cases": "glycan notation: IUPAC condensed, linker removed", "key": {"[1]": {"biological_target": "Fuc(a1-2)Gal(b1-4)GlcNAc(b1-3)Gal(b1-4)GlcNAc(b1-2)Man(a1-3)[Fuc(a1-2)Gal(b1-4)GlcNAc(b1-3)Gal(b1-4)GlcNAc(b1-2)Man(a1-6)]Man(b1-4)GlcNAc(b1-4)GlcNAc", "method_in_brief": "(§1)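 Glycan array binding is given as a within-array Z-score, which can be read as non-binding when negative. The arrays, 3228 of them, came from the Consortium for Functional Glycomics database and were retained only where the protein sequence was available. Z-scores were averaged across arrays of the same protein sequence at different concentrations or buffers and across linkers.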"}, "[2]": {"biological_target": "Fuc(a1-2)Gal(b1-4)GlcNAc(b1-3)Gal(b1-4)GlcNAc(b1-3)Gal(b1-4)GlcNAc", "method_in_brief": "as §1"}, "[3]": {"biological_target": "Fuc(a1-2)Gal(b1-4)GlcNAc(b1-3)GalNAc", "method_in_brief": "as §1"}, "[4]": {"biological_target": "Fuc(a1-2)Gal(b1-4)GlcNAc(b1-3)[Fuc(a1-2)Gal(b1-4)GlcNAc(b1-6)]GalNAc", "method_in_brief": "as §1"}, "[5]": {"biological_target": "Fuc(a1-2)Gal(b1-4)GlcNAc(b1-3)[Fuc(a1-3)[Gal(b1-4)]GlcNAc(b1-6)]Gal(b1-4)Glc", "method_in_brief": "as §1"}, "[6]": {"biological_target": "Fuc(a1-2)Gal(b1-4)GlcNAc(b1-6)GalNAc", "method_in_brief": "as §1"}, "[7]": {"biological_target": "Fuc(a1-2)Gal(b1-4)GlcNAc6S", "method_in_brief": "as §1"}, "[8]": {"biological_target": "Fuc(a1-2)Gal(b1-4)[Fuc(a1-3)]GlcNAc", "method_in_brief": "as §1"}, "[9]": {"biological_target": "Fuc(a1-2)Gal(b1-4)[Fuc(a1-3)]GlcNAc(b1-2)Man(a1-3)[Fuc(a1-2)Gal(b1-4)[Fuc(a1-3)]GlcNAc(b1-2)Man(a1-6)]Man(b1-4)GlcNAc(b1-4)[Fuc(a1-6)]GlcNAc", "method_in_brief": "as §1"}, "[10]": {"biological_target": "Fuc(a1-2)Gal(b1-4)[Fuc(a1-3)]GlcNAc(b1-2)[Fuc(a1-2)Gal(b1-4)[Fuc(a1-3)]GlcNAc(b1-4)]Man(a1-3)[Fuc(a1-2)Gal(b1-4)[Fuc(a1-3)]GlcNAc(b1-2)Man(a1-6)]Man(b1-4)GlcNAc(b1-4)GlcNAc", "method_in_brief": "as §1"}, "[11]": {"biological_target": "Fuc(a1-2)Gal(b1-4)[Fuc(a1-3)]GlcNAc(b1-3)Gal(b1-4)[Fuc(a1-3)]GlcNAc", "method_in_brief": "as §1"}, "[12]": {"biological_target": "Fuc(a1-2)Gal(b1-4)[Fuc(a1-3)]GlcNAc(b1-3)Gal(b1-4)[Fuc(a1-3)]GlcNAc(b1-3)Gal(b1-4)[Fuc(a1-3)]GlcNAc", "method_in_brief": "as §1"}, "[13]": {"biological_target": "Fuc(a1-2)Gal(b1-4)[Fuc(a1-3)]GlcNAc(b1-3)GalNAc", "method_in_brief": "as §1"}, "[14]": {"biological_target": "Fuc(a1-2)Gal(b1-4)[Fuc(a1-3)]GlcNAc(b1-3)[Neu5Ac(a2-6)Gal(b1-4)GlcNAc(b1-6)]Gal(b1-4)Glc", "method_in_brief": "as §1"}, "[15]": {"biological_target": "Fuc(a1-2)Gal3S(b1-4)GlcNAc", "method_in_brief": "as §1"}, "[16]": {"biological_target": "Fuc(a1-2)Gal6S(b1-3)GlcNAc", "method_in_brief": "as §1"}, "[17]": {"biological_target": "Fuc(a1-2)Gal6S(b1-3)GlcNAc6S", "method_in_brief": "as §1"}, "Fuc(a1-2)Gal6S(b1-4)Glc": {"biological_target": "Fuc(a1-2)Gal6S(b1-4)Glc", "method_in_brief": "as §1"}, "[18]": {"biological_target": "Fuc(a1-2)Gal6S(b1-4)Glc6S", "method_in_brief": "as §1"}, "Fuc(a1-2)[Gal(a1-3)]Gal": {"biological_target": "Fuc(a1-2)[Gal(a1-3)]Gal", "method_in_brief": "as §1"}, "[19]": {"biological_target": "Fuc(a1-2)[Gal(a1-3)]Gal(b1-3)GalNAc", "method_in_brief": "as §1"}, "[20]": {"biological_target": "Fuc(a1-2)[Gal(a1-3)]Gal(b1-3)GalNAc(b1-3)Gal(a1-4)Gal(b1-4)Glc", "method_in_brief": "as §1"}, "[21]": {"biological_target": "Fuc(a1-2)[Gal(a1-3)]Gal(b1-3)GlcNAc", "method_in_brief": "as §1"}, "[22]": {"biological_target": "Fuc(a1-2)[Gal(a1-3)]Gal(b1-3)GlcNAc(b1-2)Man(a1-3)[Fuc(a1-2)[Gal(a1-3)]Gal(b1-3)GlcNAc(b1-2)Man(a1-6)]Man(b1-4)GlcNAc(b1-4)GlcNAc", "method_in_brief": "as §1"}, "[23]": {"biological_target": "Fuc(a1-2)[Gal(a1-3)]Gal(b1-3)GlcNAc(b1-2)Man(a1-3)[Fuc(a1-2)[Gal(a1-3)]Gal(b1-3)GlcNAc(b1-2)Man(a1-6)]Man(b1-4)GlcNAc(b1-4)[Fuc(a1-6)]GlcNAc", "method_in_brief": "as §1"}, "[24]": {"biological_target": "Fuc(a1-2)[Gal(a1-3)]Gal(b1-3)GlcNAc(b1-3)GalNAc", "method_in_brief": "as §1"}, "[25]": {"biological_target": "Fuc(a1-2)[Gal(a1-3)]Gal(b1-3)GlcNAc(b1-6)GalNAc", "method_in_brief": "as §1"}, "[26]": {"biological_target": "Fuc(a1-2)[Gal(a1-3)]Gal(b1-4)Glc", "method_in_brief": "as §1"}, "[27]": {"biological_target": "Fuc(a1-2)[Gal(a1-3)]Gal(b1-4)GlcNAc", "method_in_brief": "as §1"}, "[28]": {"biological_target": "Fuc(a1-2)[Gal(a1-3)]Gal(b1-4)GlcNAc(b1-2)Man", "method_in_brief": "as §1"}, "[29]": {"biological_target": "Fuc(a1-2)[Gal(a1-3)]Gal(b1-4)GlcNAc(b1-2)Man(a1-3)[Fuc(a1-2)[Gal(a1-3)]Gal(b1-4)GlcNAc(b1-2)Man(a1-6)]Man(b1-4)GlcNAc(b1-4)GlcNAc", "method_in_brief": "as §1"}, "[30]": {"biological_target": "Fuc(a1-2)[Gal(a1-3)]Gal(b1-4)GlcNAc(b1-2)Man(a1-3)[Fuc(a1-2)[Gal(a1-3)]Gal(b1-4)GlcNAc(b1-2)Man(a1-6)]Man(b1-4)GlcNAc(b1-4)[Fuc(a1-6)]GlcNAc", "method_in_brief": "as §1"}, "[31]": {"biological_target": "Fuc(a1-2)[Gal(a1-3)]Gal(b1-4)GlcNAc(b1-3)GalNAc", "method_in_brief": "as §1"}, "[32]": {"biological_target": "Fuc(a1-2)[Gal(a1-3)]Gal(b1-4)GlcNAc(b1-3)[Fuc(a1-2)[Gal(a1-3)]Gal(b1-4)GlcNAc(b1-6)]GalNAc", "method_in_brief": "as §1"}, "[33]": {"biological_target": "Fuc(a1-2)[Gal(a1-3)]Gal(b1-4)GlcNAc(b1-6)GalNAc", "method_in_brief": "as §1"}, "[34]": {"biological_target": "Fuc(a1-2)[Gal(a1-3)]Gal(b1-4)[Fuc(a1-3)]Glc", "method_in_brief": "as §1"}, "[35]": {"biological_target": "Fuc(a1-2)[Gal(a1-3)]Gal(b1-4)[Fuc(a1-3)]GlcNAc", "method_in_brief": "as §1"}}, "note": "The list shows a part of the results."}
{"binder": "B1", "values": [{"measurement": "glycan array binding signal (z-score)", "setting": "[1]", "result": -0.263}, {"measurement": "glycan array binding signal (z-score)", "setting": "[2]", "result": -0.315}, {"measurement": "glycan array binding signal (z-score)", "setting": "[3]", "result": -0.371}, {"measurement": "glycan array binding signal (z-score)", "setting": "[4]", "result": -0.32}, {"measurement": "glycan array binding signal (z-score)", "setting": "[5]", "result": -0.34}, {"measurement": "glycan array binding signal (z-score)", "setting": "[6]", "result": 1.67}, {"measurement": "glycan array binding signal (z-score)", "setting": "[7]", "result": -0.391}, {"measurement": "glycan array binding signal (z-score)", "setting": "[8]", "result": -0.368}, {"measurement": "glycan array binding signal (z-score)", "setting": "[9]", "result": -0.092}, {"measurement": "glycan array binding signal (z-score)", "setting": "[10]", "result": -0.12}, {"measurement": "glycan array binding signal (z-score)", "setting": "[11]", "result": -0.418}, {"measurement": "glycan array binding signal (z-score)", "setting": "[12]", "result": -0.332}, {"measurement": "glycan array binding signal (z-score)", "setting": "[13]", "result": 1.8}, {"measurement": "glycan array binding signal (z-score)", "setting": "[14]", "result": -0.398}, {"measurement": "glycan array binding signal (z-score)", "setting": "[15]", "result": -0.335}, {"measurement": "glycan array binding signal (z-score)", "setting": "[16]", "result": -0.361}, {"measurement": "glycan array binding signal (z-score)", "setting": "[17]", "result": -0.367}, {"measurement": "glycan array binding signal (z-score)", "setting": "Fuc(a1-2)Gal6S(b1-4)Glc", "result": -0.377}, {"measurement": "glycan array binding signal (z-score)", "setting": "[18]", "result": -0.354}, {"measurement": "glycan array binding signal (z-score)", "setting": "Fuc(a1-2)[Gal(a1-3)]Gal", "result": -0.362}, {"measurement": "glycan array binding signal (z-score)", "setting": "[19]", "result": -0.322}, {"measurement": "glycan array binding signal (z-score)", "setting": "[20]", "result": -0.505}, {"measurement": "glycan array binding signal (z-score)", "setting": "[21]", "result": -0.354}, {"measurement": "glycan array binding signal (z-score)", "setting": "[22]", "result": 0.013}, {"measurement": "glycan array binding signal (z-score)", "setting": "[23]", "result": -0.4}, {"measurement": "glycan array binding signal (z-score)", "setting": "[24]", "result": -0.365}, {"measurement": "glycan array binding signal (z-score)", "setting": "[25]", "result": -0.396}, {"measurement": "glycan array binding signal (z-score)", "setting": "[26]", "result": -0.355}, {"measurement": "glycan array binding signal (z-score)", "setting": "[27]", "result": -0.374}, {"measurement": "glycan array binding signal (z-score)", "setting": "[28]", "result": -0.352}, {"measurement": "glycan array binding signal (z-score)", "setting": "[29]", "result": 2.63}, {"measurement": "glycan array binding signal (z-score)", "setting": "[30]", "result": -0.387}, {"measurement": "glycan array binding signal (z-score)", "setting": "[31]", "result": -0.346}, {"measurement": "glycan array binding signal (z-score)", "setting": "[32]", "result": 0.139}, {"measurement": "glycan array binding signal (z-score)", "setting": "[33]", "result": -0.347}, {"measurement": "glycan array binding signal (z-score)", "setting": "[34]", "result": -0.356}, {"measurement": "glycan array binding signal (z-score)", "setting": "[35]", "result": 0.369}]}
